Laboratory results from the supplement of paper PMC3334620.
Over roughly 33,000 sequences, “E-score (-0.5 to 0.5)” has its median near -0.04; the highest 2% begin near 0.36. The list shows a part of the results.

These sequences were tested against T1, Hmlalpha2 (UniProt P0CY09) (assay: PBM E-score (8-mer binding enrichment) (E-score (-0.5 to 0.5)); higher = stronger / more preferred TF binding; most listed sequences are background and not binding sites). Settings: protein concentration: 200 nM; construct: GST-full length.
T1 sequence: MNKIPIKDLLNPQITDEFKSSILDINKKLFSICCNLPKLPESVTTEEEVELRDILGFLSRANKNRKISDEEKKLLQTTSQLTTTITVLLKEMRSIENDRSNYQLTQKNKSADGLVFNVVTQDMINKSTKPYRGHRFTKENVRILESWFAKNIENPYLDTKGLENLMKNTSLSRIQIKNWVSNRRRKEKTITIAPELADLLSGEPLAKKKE
Description: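 Universal 'all 10-mer' protein binding microarrays (Agilent AMADID 015681) probed with GST-tagged S. cerevisiae TFs (full-length or DBD) made by in vitro transcription/translation (PURExpress), about 100-200 nM. Bound TF was detected with fluorescent anti-GST. Each ungapped 8-mer (which stands for itself and its reverse complement) is scored by the PBM enrichment score (E-score), a modified Wilcoxon-Mann-Whitney statistic from -0.5 to +0.5, computed with the Universal PBM Analysis Suite. Scale: above 0.35 generally sequence-specific binding.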

| Sequence | PBM E-score |
| --- | --- |
| GTGAATAA | 0.249 |
| ATGCTTTG | 0.0998 |
| AGACACAA | 0.172 |
| CGTAAAAA | 0.345 |
| AGGACCCT | -0.133 |
| TATGCATA | 0.0713 |
| TGGTTAAA | 0.231 |
| CTCAGAGA | -0.0918 |
| CATTTAGA | -0.0502 |
| ACTTTCCA | -0.0191 |
| GGGATTAC | 0.317 |
| GTCATCCA | 0.0285 |
| ATTCGGCC | -0.0375 |
| ATATCGTG | 0.0753 |
| AATGGCCG | -0.00732 |
| AAGGAACA | 0.27 |
| GAAGTGCC | -0.0963 |
| CGCACATC | -0.0446 |
| CTCTCGTC | -0.203 |
| CCATCAGG | -0.306 |
| TATCACGA | 0.00013 |
| ATATAAGG | 0.00845 |
| CTCGTAAC | 0.117 |
| GTAAGAAC | 0.302 |
| ACAAACCT | 0.116 |

| Sequence | PBM E-score |
| --- | --- |
| AATTTCAA | 0.125 |
| GTATGCTA | 0.0741 |
| CACCACAA | 0.036 |
| CCGCTAGG | -0.206 |
| AACCTTCT | -0.233 |
| CGGGCACG | -0.0491 |
| GTAATATA | 0.361 |
| ACTGGGCA | -0.173 |
| ACGTCGCA | -0.0442 |
| GCGCAATA | -0.0339 |
| AGAAGGGC | -0.202 |
| GGCACATA | 0.0277 |
| ATCAGGGG | -0.439 |
| GTGTCCCA | -0.181 |
| AGGTCGAG | 0.0391 |
| CAGCGAAC | -0.1 |
| GGAGGCAA | -0.367 |
| AGAGATAA | 0.0246 |
| CACACACG | 0.279 |
| ATCGGCTG | -0.339 |
| AACGCAGA | 0.187 |
| AGTTTTTC | 0.0615 |
| CGTGGACC | -0.229 |
| CGTTGCCA | 0.0785 |
| ATCGATTC | -0.0308 |

| Sequence | PBM E-score |
| --- | --- |
| GGGCTGAA | -0.0472 |
| GACGGTGA | -0.192 |
| CGTAGAGC | 0.095 |
| CCATTCGA | -0.0609 |
| CTTCCCAC | -0.164 |
| GCAACCAA | -0.00712 |
| AGAACTAA | 0.189 |
| GGAACACC | -0.195 |
| TCAACGCA | 0.31 |
| GACCCTCC | -0.282 |
| ATCGACGG | -0.105 |
| GGCTCTAC | -0.0942 |
| TAAGACAA | 0.17 |
| CTCCGAGC | -0.152 |
| CATAATTA | 0.315 |
| AAGATGTA | 0.268 |
| ACCCTAAT | -0.101 |
| ACGGGTTC | -0.19 |
| CGGATCAA | 0.00758 |
| CCGCCGCA | -0.196 |
| CCCGGATA | -0.252 |
| CTCTCATC | -0.129 |
| CGTCCACA | -0.0612 |
| ACACCGAC | 0.0329 |
| ATGATTTA | 0.209 |

| Sequence | PBM E-score |
| --- | --- |
| CATCGGGA | -0.111 |
| GGCAAATA | 0.036 |
| CAGGAGGG | -0.243 |
| GTCCCATA | -0.175 |
| CGGACACC | -0.209 |
| GGGCGTTA | 0.19 |
| GTCCGACA | 0.0479 |
| AGCGGAGC | -0.247 |
| TAGTCTGA | 0.00755 |
| GGACTATA | -0.0843 |
| AGGTACCG | -0.183 |
| CGAATTGC | -0.173 |
| TCGCGGAA | -0.228 |
| GAATCTGC | -0.125 |
| GAGCCGCA | -0.149 |
| CTACCCCC | -0.327 |
| CCGACCGA | -0.207 |
| ATTAGCAC | 0.0472 |
| GGACTGCC | -0.212 |
| ATACGGAT | 0.0151 |
| ATCCGGCG | -0.11 |
| ACAGCGCA | -0.0935 |
| ATGTGAAT | 0.297 |
| AGCTACAG | -0.129 |
| AAATCCAT | 0.135 |

| Sequence | PBM E-score |
| --- | --- |
| AGTTTACA | 0.405 |
| CCTCCTTC | -0.272 |
| AAAGAAGC | 0.0547 |
| CCAAGCGC | -0.0307 |
| CCGACTCC | -0.28 |
| CTTGCGTC | -0.157 |
| TAAAAGGA | 0.0439 |
| GGTAATCA | 0.14 |
| GCGAATTA | 0.153 |
| AGAGAGAC | -0.191 |
| AAGTAGCC | -0.229 |
| GACGTGGA | -0.209 |
| AACATTTC | 0.203 |
| GAGCTTGC | -0.319 |
| ACAATTGG | -0.0846 |
| CCCTTTTA | -0.101 |
| CGGACTAG | -0.336 |
| GCCATACC | -0.28 |
| TCGTCAGA | -0.127 |
| GAGTTATA | 0.0537 |
| AGGATAGG | -0.257 |
| GGCGAGGA | -0.128 |
| ACATGCGA | 0.351 |
| GCGGCAAC | -0.125 |
| GCTATCCA | -0.231 |

| Sequence | PBM E-score |
| --- | --- |
| ATGTGGTA | 0.143 |
| CGTTAGAG | -0.0906 |
| GCGAGAGA | -0.24 |
| ACTGATCT | 0.139 |
| ACCTCCAC | -0.173 |
| GAGGACAC | -0.104 |
| ATCGGGTC | -0.154 |
| CAGCACTC | -0.0774 |
| ATTCTTAA | 0.148 |
| CCGGGAAC | -0.219 |
| CCCTTGCC | -0.285 |
| GCGACACC | -0.121 |
| GATTTTGC | -0.0953 |
| CCACCGGC | -0.34 |
| CATCGCCG | -0.0581 |
| ACCCCTTC | -0.156 |
| CGTCTTTA | 0.0759 |
| GATTTAAA | 0.0171 |
| CGTCTTGC | -0.101 |
| GCTTGTTA | 0.286 |
| GCCCTTTA | -0.0469 |
| ACCACCAT | -0.144 |
| AATAAGCT | 0.131 |
| GCTATAGC | -0.344 |
| AAGCTAGG | -0.186 |

| Sequence | PBM E-score |
| --- | --- |
| CAGCAATA | 0.0445 |
| CCCCAGTC | -0.309 |
| GGCCGATA | -0.0544 |
| ATCAAGAT | -0.0259 |
| AGGGCTTC | -0.0279 |
| ACAAGGGG | 0.152 |
| TACTTTAA | 0.208 |
| ATGGCTTA | -0.0612 |
| TTCACGAA | 0.019 |
| ACCTATCG | -0.0298 |
| CATTCCGG | -0.182 |
| CCAATATA | -0.0161 |
| CAGGCCCC | -0.311 |
| GCCATTAC | 0.145 |
| AGCATAGG | -0.178 |
| ATAGTCGA | 0.0472 |
| CGGATATC | -0.0199 |
| ACACTAGA | 0.0859 |
| CCCATGCA | 0.132 |
| TCTATAAA | 0.116 |
| CATCTTAC | 0.0513 |
| ACAACTAT | 0.173 |
